The other results are listed elsewhere or left out. At the low end of the ranking the order means little.

In this test the target is SIX1 homeodomain (reference allele) (UniProt Q15475). As to the kind of experiment: universal protein binding microarray. The conditions noted are these: Universal all-10-mer PBM (8x60K, AMADID 030236), 300 nM GST-tagged protein, Alexa Fluor 488 anti-GST; buffer, salt, pH and temperature not stated; high values mean tight binding; most listed sequences are background and not binding sites; double strand, one strand shown.
With CCTAACCG, the binding signal was -0.0238 E-score.

With AGATGCCT, the binding signal was determined as 0.0189 E-score.

GATAAAGC: the binding signal is -0.168 E-score.

For ATCAACGC, the binding signal was determined as 0.0673 E-score.

Consider GATAGAGA, for which the binding signal turned out to be 0.0921 E-score.

TCTTTACA: the binding signal was -0.134 E-score.

CAGTCGGA: the binding signal was -0.118 E-score.

Consider AGTACGAC, for which the binding signal is -0.14 E-score.

On to CTCGAATC, for which the binding signal was -0.0168 E-score.

Turning to CTATGCGA, the binding signal is -0.103 E-score.

Take ATAGCAAG: the binding signal amounted to 0.0671 E-score.

As to CCTCTGTC, the binding signal is -0.00682 E-score.

For the sequence TATGAGAA, the binding signal stood at 0.102 E-score.

With ACTTCCAT, the binding signal is -0.00885 E-score.

As for CCTTTCAA, the binding signal is -0.121 E-score.

Regarding GCCACCGC, the binding signal was -0.127 E-score.

ATATTCGC: the binding signal was determined as 0.158 E-score.

As to ACCACCAA, the binding signal was -0.0491 E-score.

As to TATTGCAA, the binding signal came to 0.125 E-score.

In the case of AAAACAAG, the binding signal was -0.115 E-score.

Regarding AACTCAAA, the binding signal was -0.237 E-score.

As to ATGTAACC, the binding signal is -0.0718 E-score.

Regarding CTATCCCC, the binding signal was found to be 0.321 E-score.

Take ATGGTACA: the binding signal is 0.00155 E-score.

As to CGAGTGGC, the binding signal turned out to be 0.00885 E-score.

For TCCTGACA, the binding signal turned out to be 0.133 E-score.

AGTAAGAT: the binding signal came to 0.191 E-score.

Regarding AAAAATGT, the binding signal was -0.321 E-score.

Turning to AGGTGCGG, the binding signal is 0.00962 E-score.

Consider CTTTTAAC, for which the binding signal was -0.244 E-score.

For AGTCGTAA, the binding signal was -0.112 E-score.

In the case of AGTCTGGG, the binding signal is -0.179 E-score.

As for CGTAGCAC, the binding signal is -0.0379 E-score.

Turning to AAAATAGT, the binding signal is -0.125 E-score.

Turning to CCCATTAA, the binding signal is -0.184 E-score.

CTAGTCAA: the binding signal was -0.148 E-score.

As to CTGCTAAC, the binding signal was -0.123 E-score.

CATAATAA: the binding signal is 0.11 E-score.

CGTGGACA: the binding signal worked out at 0.0282 E-score.

For GGGACGAC, the binding signal is -0.185 E-score.

For the sequence ACGGTAGA, the binding signal was determined as 0.0116 E-score.

Regarding GATTGTAC, the binding signal was -0.121 E-score.

Turning to CGCAAAAC, the binding signal is -0.00699 E-score.

For the sequence ACAGTTCA, the binding signal is -0.143 E-score.

Regarding GACCTAAA, the binding signal is -0.204 E-score.

Regarding CGATGGGC, the binding signal was -0.12 E-score.

Consider GTGCACGA, for which the binding signal was -0.0526 E-score.

Consider AGGACCGA, for which the binding signal was -0.153 E-score.

For AACAATAT, the binding signal is 0.253 E-score.

For the sequence ACCTACTG, the binding signal was -0.0428 E-score.

As to GCAAGACA, the binding signal was -0.17 E-score.

For the sequence ACCTAGGG, the binding signal worked out at 0.118 E-score.

Consider ACCCTGAG, for which the binding signal was 0.144 E-score.

On to GACGGCAA, for which the binding signal is -0.0296 E-score.

For GGCTCTAA, the binding signal amounted to 0.117 E-score.

With GTCTTGAA, the binding signal is -0.227 E-score.

For the sequence AACCACCC, the binding signal is -0.127 E-score.

As to CACGTACG, the binding signal is -0.0874 E-score.

For AAAGTAGA, the binding signal is 0.115 E-score.

As to CCATGTTC, the binding signal is -0.11 E-score.

Take AGGTGCAT: the binding signal is -0.18 E-score.

As to CTAGATGC, the binding signal was 0.153 E-score.

For the sequence CTTCAACA, the binding signal was -0.0206 E-score.

In the case of GGAATATA, the binding signal was 0.0955 E-score.

In the case of ATACAGAT, the binding signal was determined as 0.292 E-score.

Regarding GCTATCAA, the binding signal was 0.312 E-score.

Turning to CTACCTTC, the binding signal is -0.0237 E-score.

As for CTTAAATC, the binding signal was -0.112 E-score.

Consider AACTGTTG, for which the binding signal was -0.204 E-score.

For the sequence AAAACAGT, the binding signal was -0.171 E-score.

As for CTCGGTAA, the binding signal was -0.0852 E-score.

As to ACAAAGAT, the binding signal was 0.0452 E-score.

As to CTCGCTTC, the binding signal is -0.096 E-score.

With AACGTAGC, the binding signal is -0.308 E-score.

As to ACACACTA, the binding signal is -0.0503 E-score.

With AATCTAAT, the binding signal is -0.194 E-score.

On to AGCCCTAT, for which the binding signal amounted to 0.0563 E-score.

Take ATACTACA: the binding signal worked out at 0.348 E-score.

In the case of CCCCTGAG, the binding signal amounted to 0.0921 E-score.

For TACTGTCA, the binding signal is 0.0043 E-score.

Consider ATAATAGC, for which the binding signal was 0.106 E-score.

As to CGTGAATC, the binding signal was 0.0225 E-score.

ACAATACT: the binding signal worked out at 0.234 E-score.

With AACCCAGG, the binding signal stood at 0.012 E-score.

GCGATACA: the binding signal worked out at 0.376 E-score.

With AAGGATCT, the binding signal is 0.267 E-score.

Consider AGTCCTGC, for which the binding signal was -0.208 E-score.

Take ACGGGCAG: the binding signal was 0.0196 E-score.

Take ACGCCGAT: the binding signal worked out at 0.182 E-score.

GTCGAGCA: the binding signal was -0.241 E-score.

For the sequence GGCCGAGA, the binding signal was -0.113 E-score.

As to CGAAAAAG, the binding signal is -0.155 E-score.

GACAAAAA: the binding signal was -0.238 E-score.

GCACAAAC: the binding signal was -0.144 E-score.

For the sequence AGACAATC, the binding signal is -0.0257 E-score.

As for CTATTTTC, the binding signal was -0.056 E-score.

Turning to AGCTATCC, the binding signal came to 0.149 E-score.

For the sequence GATTGGAA, the binding signal is -0.0376 E-score.

Take CTACTTAA: the binding signal was -0.135 E-score.

CTGGTACA: the binding signal came out at 0.0187 E-score.

CCCCGCAA: the binding signal was -0.03 E-score.

On to ATGCCTCC, for which the binding signal is -0.124 E-score.

For the sequence ACGGCCCA, the binding signal is -0.00878 E-score.

On to ACGGGTAA, for which the binding signal was -0.00364 E-score.

AGAGCCCA: the binding signal is -0.226 E-score.

Turning to AACAGGGG, the binding signal was -0.0256 E-score.

With GGGTAACA, the binding signal was 0.0846 E-score.

With ACGGTTAT, the binding signal came to 0.0573 E-score.

On to ATGAGGGC, for which the binding signal turned out to be 0.0539 E-score.

Turning to TGAGCGAA, the binding signal was -0.141 E-score.

Regarding ACGCGCAA, the binding signal is -0.043 E-score.

Regarding AATGAACA, the binding signal was -0.108 E-score.

Take CTGGCTAC: the binding signal turned out to be 0.0132 E-score.

In the case of AATCGGAC, the binding signal is -0.137 E-score.

Take CCGGGAGG: the binding signal was -0.0434 E-score.

Consider GGACGTTA, for which the binding signal was -0.0978 E-score.

With AGTTGGTC, the binding signal is -0.188 E-score.

Turning to ACTGTGAG, the binding signal worked out at 0.108 E-score.

Consider CGCAAAGC, for which the binding signal is -0.162 E-score.

Take CTTTATCC: the binding signal turned out to be 0.084 E-score.

Take GCACACAC: the binding signal is -0.223 E-score.

For CAGTGTAG, the binding signal was found to be 0.161 E-score.

For AGAAAGAT, the binding signal amounted to 0.0209 E-score.

For ACACAGAT, the binding signal turned out to be 0.213 E-score.

As for AACTATAC, the binding signal was determined as 0.24 E-score.

Consider CAGGTGAG, for which the binding signal was determined as 0.0985 E-score.

For the sequence AAATTTCG, the binding signal is -0.104 E-score.

For ATTAGTCG, the binding signal is 0.0293 E-score.

Regarding ACATCATC, the binding signal was -0.0921 E-score.

AGTACTTG: the binding signal is -0.115 E-score.

Take ACCCACTC: the binding signal amounted to 0.0919 E-score.

For the sequence ATGCCGGA, the binding signal stood at 0.217 E-score.

Turning to AAGGTTTC, the binding signal was 0.0148 E-score.

Consider AGGTTATC, for which the binding signal came out at 0.111 E-score.

For the sequence CACCATAC, the binding signal is 0.0902 E-score.

As for ACAGTACG, the binding signal was -0.164 E-score.

Take AATCACCA: the binding signal was -0.00782 E-score.

Turning to TAGGATGA, the binding signal was 0.199 E-score.

As for GGGAAGAA, the binding signal was -0.185 E-score.

Consider GCTTCAGA, for which the binding signal is -0.286 E-score.

On to CAGGCGGC, for which the binding signal is -0.0438 E-score.

As for CCTCGTTC, the binding signal is -0.0948 E-score.

As to TACACAAA, the binding signal came to 0.00641 E-score.

Regarding AAAAATTG, the binding signal was -0.268 E-score.

On to CGAGTCCA, for which the binding signal is -0.0913 E-score.

ACGATCTG: the binding signal stood at 0.219 E-score.

Consider GAATCCGC, for which the binding signal is 0.0932 E-score.

Take GCGAGTCA: the binding signal was -0.199 E-score.

On to GAGAATGC, for which the binding signal was -0.0136 E-score.

With ATTGTTTG, the binding signal is -0.217 E-score.

With TAGGGCAA, the binding signal was -0.163 E-score.

As for AGGCTCGA, the binding signal is -0.024 E-score.

For GTCCGCCA, the binding signal was -0.154 E-score.

Regarding ATTGTCTG, the binding signal was 0.0874 E-score.

As for CCGTCAAG, the binding signal is -0.205 E-score.

For TGCAAGCA, the binding signal is -0.174 E-score.

As for ATTGCAAG, the binding signal was -0.00301 E-score.

In the case of TCTTACCA, the binding signal came to 0.0472 E-score.

Regarding CAGAGACG, the binding signal came to 0.103 E-score.

With GTCCATTA, the binding signal is -0.18 E-score.

Turning to ACGCGAGA, the binding signal was 0.138 E-score.

With AAGGTCAC, the binding signal is -0.182 E-score.

Consider GGGTAAAC, for which the binding signal came out at 0.0272 E-score.

In the case of ACATAGGG, the binding signal was -0.176 E-score.

Turning to GTCTAAAA, the binding signal was -0.164 E-score.

On to AAGGGACA, for which the binding signal is -0.158 E-score.

With AAAATGCA, the binding signal is -0.147 E-score.

As for CAGAAGGG, the binding signal turned out to be 0.0385 E-score.

With AGGGACTA, the binding signal is -0.149 E-score.

Turning to TGTAATAA, the binding signal is -0.081 E-score.

Regarding AATTACCC, the binding signal is -0.03 E-score.

In the case of GAAGACGA, the binding signal was found to be 0.185 E-score.

(Values after PMC10668032.)
